From PubChem BioAssay AID1347071 (National Center for Advancing Translational Sciences (NCATS), 2019)
The campaign covered roughly 410,000 compounds. About 260 (0.063%) were called active. The inconclusive results got no clear call from the source; some entries with a clear call stand among them for comparison. Calls come from the whole dose curve; as a rule, active = well fitted activation curve with a large enough effect; inconclusive = small, poorly fitted or top-dose-only effect; inactive = no such curve, though single readings can be large or run the other way. No potency is given beside an inconclusive call; the fits are too rough.

Experiment: qHTS for compounds that reverse cellular toxicity of Amyloid beta (A-beta) peptide in yeast: Primary Screen; note: nearly all actives have a fitted effect of over 55% in size
Conditions: yeast expressing A-beta42, growth rescue, OD600, 48 h; growth rescue: at 46.1 µM (top of the series), 0% DMSO, 100% iron-clioquinol control
Summary of the method: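 Yeast growth medium received pinned compounds, then yeast cells expressing toxic A-beta were added; plates incubated at 30 C for 48 hr. Growth read as absorbance at 600 nm, normalized to DMSO and equimolar FeCl3 plus clioquinol controls.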
Potency is the fitted concentration of half-maximal effect; tags give direction and shape of the fitted curve.

| Compound | Potency | growth rescue |
| --- | --- | --- |
| O=C(O)c1ccc(CN2CCOCC2)o1 | inconclusive [activator, full curve, poor fit] |  |
| COc1cc(-c2nc3ccccn3c2/N=C/c2ccccc2)ccc1O |  | inactive: -23.5% |
| S=C(NCCc1ccccn1)Nc1cc(Cl)cc(Cl)c1 | inconclusive [activator, partial curve, poor fit] |  |
| CCOc1cc(/C=N\NC(=O)CC(=O)NCCc2ccccc2)ccc1O |  | inactive: -1.96% |
| Cc1ccc(NC(=S)/N=C(\N)Nc2nc(C)c3cc(C)c(C)cc3n2)cc1C | inconclusive [activator, partial curve, poor fit] |  |
| Cc1c(Cl)cccc1NC(=S)N(Cc1ccco1)C(C)c1ccccn1 (configuration not stated) | inconclusive [activator, single point] |  |
| O=[N+]([O-])c1ccccc1Nc1ccccc1[N+](=O)[O-] | inconclusive [activator, full curve] |  |
| CN1CCN(C(=O)CNC(=O)C23CC4CC(CC(C4)C2)C3)CC1 | inconclusive [activator, single point] |  |
| CCOC(=O)c1cc(-c2ccccc2)nn1CCC#N | inconclusive [activator, full curve] |  |
| CCOc1ccc(C(C)NC(=S)NCc2ccc(Cl)cc2)cc1 (configuration not stated) | inconclusive [activator, single point] |  |
| COc1ccc(NC(=O)CSc2nc(C)cs2)c(OC)c1 | inconclusive [activator, single point] |  |
| Fc1ccc(-c2cc(C(F)(F)C(F)F)[nH]n2)cc1 | inconclusive [activator, partial curve, poor fit] |  |
| Cc1cc(NC(=O)COC(=O)COc2ccc(C(=O)c3ccccc3)cc2)no1 | inconclusive [activator, partial curve, poor fit] |  |
| CC(C)Cc1csc(=S)[nH]1 | inconclusive [activator, partial curve, poor fit] |  |
| Cc1ccc(Cl)cc1N1CCN(C(=S)NCCc2ccccc2)CC1 | inconclusive [activator, single point] |  |
| Cc1ccc(NCc2nc3ccccc3n2CCOc2ccccc2C)cc1 | inconclusive [activator, single point] |  |
| CCN1CCN(C(=O)c2ccccc2N(Cc2ccccc2)S(=O)(=O)c2ccc(C)cc2)CC1 | inconclusive [activator, partial curve, poor fit] |  |
| CC(C)(C)c1ccc(C(O)c2ncc(-c3ccccc3F)[nH]2)cc1 (configuration not stated) | inconclusive [activator, single point] |  |
| O=C(C1COc2ccccc2O1)N1CCN(S(=O)(=O)c2cc(F)ccc2F)CC1 (configuration not stated) |  | inactive: 0.0299% |
| N#Cc1ccccc1CSc1nc(N2CCCCC2)nc(N2CCCCC2)n1 | inconclusive [activator, partial curve, poor fit] |  |
| COc1ccc(C(=O)/C=C/C(=O)N(Cc2ccc3c(c2)OCO3)C(C(=O)NC2CCCCC2)c2ccncc2)c(O)c1 (configuration not stated) |  | inactive: -14.2% |
| COc1ccc(NCc2nc3ccccc3n2CCOc2ccc(C)cc2)cc1 | inconclusive [activator, partial curve, poor fit] |  |
| COc1ccc(C(O)c2ncc(-c3ccccc3C)[nH]2)cc1 (configuration not stated) |  | inactive: 13.2% |

| Compound | Potency | growth rescue |
| --- | --- | --- |
| COc1ccc(N2CCN(C(=O)c3cccn4c(=O)c5ccc(Cl)cc5nc34)CC2)cc1 |  | inactive: -9.43% |
| O=Cc1[nH]c2ccccc2c1N(C(=O)CCl)c1ccc([N+](=O)[O-])cc1 | inconclusive [activator, partial curve] |  |
| COc1ccc(NS(=O)(=O)c2ccc3ccccc3c2)c2ncccc12 | active: 4.47 µM |  |
| O=C(OCc1csc(Nc2ccccc2)n1)c1ccc(Cl)cc1 | inconclusive [activator, single point] |  |
| CCOC(=O)C1=C(CC)Nc2ccccc2N=C1NC(=O)c1ccc(OC)c(S(=O)(=O)N2CCCCC2C)c1 (configuration not stated) | inconclusive [activator, single point] |  |
| Fc1ccc(C2c3cccn3CCN2C(=S)Nc2cccc(F)c2)cc1 (configuration not stated) | inconclusive [activator, single point] |  |
| C[C@]12CC[C@@H]3c4ccc(O)cc4CC[C@H]3[C@@H]1CC[C@@H]2O |  | inactive: -19.8% |
| COc1ccc(Cn2nnnc2C(c2cccs2)N2CCSCC2)cc1 (configuration not stated) | inconclusive [activator, partial curve, poor fit] |  |
| COc1ccc(NS(=O)(=O)c2cccc(C(=O)NNC(=O)CNC(=O)c3ccco3)c2)cc1 | inconclusive [activator, single point] |  |
| COc1ccc2nc(N(Cc3cccnc3)C(=O)c3ccco3)sc2c1 |  | inactive: -16.8% |
| O/N=C(/CCc1ccccc1)C1(O)CCCCC1 | inconclusive [activator, partial curve, poor fit] |  |
| Cc1ccc(C2(c3ccc(C)cc3)NC(=O)N(Cc3c(C)noc3C)C2=O)cc1 | inconclusive [activator, partial curve, poor fit] |  |
| CCCN(C(=O)Cn1c(=O)oc2cc(Cl)ccc21)c1ccc(C(C)C)cc1 | inconclusive [activator, single point] |  |
| CCOc1ccc(/C=N/n2cc(-c3ccccc3)[nH]c2=S)cc1 | inconclusive [activator, partial curve] |  |
| CCCCCN(C(=O)CCC(=O)OC(C)C(=O)c1ccc(Cl)cc1)c1c(N)n(CCCC)c(=O)[nH]c1=O (configuration not stated) |  | inactive: -0.274% |
| Cc1ccccc1C(=O)NNC(=S)NC(=O)c1ccc(Cl)cc1Cl | inconclusive [activator, full curve, poor fit] |  |
| COc1cccc(OC)c1C(=O)Nc1nc2ccc([N+](=O)[O-])cc2s1 | inconclusive [activator, single point] |  |
| O=C(CSc1nc2ncccc2o1)Nc1cccc(C(F)(F)F)c1 | active: 12.6 µM |  |
| Cc1ccc(S(=O)(=O)N2CCN(C(=O)c3c(C)nn(-c4ccccc4)c3Cl)CC2)cc1 |  | inconclusive: -30.8% [activator] |
| O=C(O)c1[nH]c2ccccc2c1C(c1cc(Cl)cc([N+](=O)[O-])c1O)c1c(C(=O)O)[nH]c2ccccc12 | inconclusive [activator, partial curve] |  |
| Fc1ccc(C2=CC(c3ccco3)n3ncnc3N2)cc1 (configuration not stated) |  | inactive: -5.85% |
| Fc1ccc2nc(Nc3ccccc3)sc2c1 | inconclusive [activator, full curve] |  |
| S=C(NCc1ccccc1)Nc1ccc(Oc2ccccc2)cc1 | inconclusive [activator, single point] |  |

| Compound | Potency | growth rescue |
| --- | --- | --- |
| O=c1[nH]c(-c2ccccc2)c(-c2ccccc2)o1 |  | inactive: 10.2% |
| CCN(C(=S)NCc1ccccc1)c1cccc2ccccc12 | inconclusive [activator, partial curve, poor fit] |  |
| OCc1ccccc1-c1cnc2sc(NCc3ccc(F)cc3)nn12 | inconclusive [activator, single point] |  |
| O=C(NC(=S)NCCC1=CCCCC1)c1ccc(Br)o1 | inconclusive [activator, partial curve, poor fit] |  |
| O=C(CSc1nc(=O)n(Cc2ccncc2)c2c1CCC2)Nc1ccc(F)cc1F |  | inactive: -11.8% |
| O=C(Nc1ccn(Cc2ccc(Cl)cc2)n1)c1ccc2c(c1)OCO2 | inconclusive [activator, single point] |  |
| CSc1ncc(C(=O)NCc2ccc(C)cc2)c(C)n1 | inconclusive [activator, single point] |  |
| Cc1cccc(CC(=O)Nc2ccc3nc(N4CCC(C)CC4)cc(C)c3c2)c1 |  | inactive: -9.2% |
| C[C@H]1CN([C@@H](C)CO)C(=O)c2c(c3ccccc3n2C)-c2ccccc2CO[C@H]1CN(C)C(=O)[C@@H]1CCCN1C |  | inactive: 7.04% |
| O=C(NNc1nc2ccc(F)cc2s1)c1cccc(F)c1 | inconclusive [activator, full curve] |  |
| CC(=O)N1CCN(CC(=O)Nc2ccccc2Sc2ccc(Cl)cc2)CC1 |  | inactive: 18% |
| Cc1cccc(NS(=O)(=O)c2cc(C(=O)N3CCc4ccccc4C3)ccc2Cl)c1C |  | inactive: -56.8% |
| Cc1nonc1C(=O)N1CCCC(Nc2ccc(C(C)C)cc2)C1 (configuration not stated) | inconclusive [activator, partial curve, poor fit] |  |
| CC(C)c1cc(C(=O)NNC(=S)NC2CCCCC2)cs1 | inconclusive [activator, partial curve, poor fit] |  |
| O=C(NC(=S)NC1CCCc2ccccc21)c1ccc(F)cc1 (configuration not stated) | inconclusive [activator, single point] |  |
| Cc1cccn2c(=O)c(C(=O)NCc3cccc(F)c3)cnc12 |  | inactive: -5.33% |
| Cc1ccc(CN2C(=O)[C@@H]3Cc4c([nH]c5ccccc45)C(C)(C)N3C2=O)cc1 | inconclusive [activator, full curve, poor fit] |  |
| O=C1Nc2ccccc2C1Cc1ccc(OC(F)(F)F)cc1 (configuration not stated) | inconclusive [activator, partial curve] |  |
| CC1=CC(C)(C)NC(=S)N1c1ccc2ccccc2c1 | inconclusive [activator, partial curve, poor fit] |  |
| CN1CCN(Cc2cc(COCc3ccccc3)c3cccnc3c2O)CC1 | inconclusive [activator, single point] |  |
| O=C(Nc1ncc(Cc2ccccc2)s1)C1CCCO1 (configuration not stated) | inconclusive [activator, single point] |  |
